From PubChem BioAssay AID1963576 (National Center for Advancing Translational Sciences (NCATS), 2024)
Hit rate of the full screen: of about 46,000 compounds, about 60 (0.1%) were called active. Inconclusive means that the source gave no clear call. Such entries were picked first, then a sample of the others. Calls come from the whole dose curve; as a rule, active = well fitted inhibition curve with a large enough effect; inconclusive = small, poorly fitted or top-dose-only effect; inactive = no such curve, though single readings can be large or run the other way. No potency is given beside an inconclusive call; the fits are too rough.
Potency is the fitted concentration of half-maximal effect; tags give direction and shape of the fitted curve.

Experiment: Primary qHTS assay for Inhibitors of ovarian cancer metastasis using an organotypic tumor microenvironment (TME) model.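 For activity change, negative = inhibition: plate controls were DMSO wells for no effect and tomatine positive control wells for full effect.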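 For potency: count of GFP cancer cells still attached after washing and fixation.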 Note: nearly all actives have a fitted effect of over 65% in size.
Conditions: SKOV3ip1-GFP adhesion/invasion on 3D omental model, fluorescence; activity change, negative = inhibition: at 45.8 µM (top of the series); series mostly up to 45.8 µM
Outline: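 A 3D layer of primary human omental fibroblasts, mesothelial cells, fibronectin and collagen I, grown 48 hr, received SKOV3ip1-GFP cells in serum-free medium plus compounds at 0.36-46 umol/L. After 2 hr RT and 16 hr 37 C, fixed adherent GFP cells were counted; normalized to DMSO and tomatine.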
In the case of `Cc1csc2nc(COC(=O)c3ccccc3NC(=O)c3cccc(Br)c3)cc(=O)n12`, the Potency is reported as “inactive”. With `Cc1cc2c(s1)Nc1ccccc1N=C2N1CCN(C)CC1` the Potency was “inactive”. For `CCCOc1ccc(C2C(=O)N(C3CCCCCC3)CC(=O)N2Cc2ccccc2OC)cc1OC` (stereo unspecified), the Potency was inconclusive [inhibitor, single point]. With `CCOC(=O)C1CCN(c2cc3c(cc2NC(=O)c2ccc(Cl)cc2)n(C)c(=O)n3C)CC1` the Potency was “inactive”. With `Cc1ccc(NC(=O)C(Cc2c[nH]c3ccccc23)NC(=O)OC(C)(C)C)c(C)c1` (stereo unspecified) the Potency was inconclusive [inhibitor, partial curve]. For `COc1ccc(CN2CCc3c(c(=O)n4ncc(C(=O)N5CCN(c6ccccc6OC)CC5)c4n3C)C2)cc1`, the Potency was “inactive”. For `CCc1cccc(NC(=O)Cn2c(C(=O)OC)cc3sc(Cl)cc32)c1`, the Potency was inconclusive [inhibitor, single point]. For `CCOC(=O)N1CCc2c(sc3c2C(=O)NC(c2ccc(N(C)C)cc2)N3)C1` (stereo unspecified), the Potency was inconclusive [inhibitor, full curve, poor fit]. For `CC[C@H]1OC(=O)[C@H](C)[C@@H](O[C@H]2C[C@@](C)(OC)[C@@H](O)[C@H](C)O2)[C@H](C)[C@@H](O[C@@H]2O[C@H](C)C[C@H](N(C)C)[C@H]2O)[C@](C)(O)C[C@H](C)C(=NOCOCCOC)[C@H](C)[C@@H](O)[C@]1(C)O`, the Potency was “inactive”. With `CCCCN(CCCNC(=O)c1cc(Nc2cccc(SC)c2)nc2ccccc12)Cc1ccccc1` the Potency was inconclusive [inhibitor, single point]. For `CCCOc1ccc(C2c3c(-c4ccccc4O)n[nH]c3C(=O)N2CCc2ccccc2)cc1OCC` (stereo unspecified), the Potency was inconclusive [inhibitor, single point]. In the case of `CCOc1ccc(NCc2cccn2-c2nnc(N3CCC(C(=O)NCc4ccccc4Cl)CC3)s2)cc1`, the Potency is reported as “inactive”. In the case of `COc1ccc(CCCc2nnc(SCC(=O)Nc3cccc(F)c3C)o2)cc1`, the Potency is reported as “inactive”. For `Cc1cc(C)c2nc(C)cc(Nc3cccc(C(=O)O)c3)c2c1`, the Potency was inconclusive [inhibitor, single point]. For `CC(=O)c1ccc(NC(=O)CSC2=Nc3ccccc3N=C(c3ccc(F)cc3)C2)cc1`, the Potency was “inactive”. For `CCCCN(C)CC(O)Cn1cc(/C=C/C(=O)c2ccc(Br)cc2)c2ccccc21` (stereo unspecified), the Potency was inconclusive [inhibitor, partial curve, poor fit]. With `COc1cc([N+](=O)[O-])ccc1NC(=O)N1CCC2(CC1)Nc1cc(F)ccc1-n1cccc12` the Potency was “inactive”. For `CCCOc1ccccc1C(=O)Nc1nc2c(s1)CCCC2`, the Potency was “inactive”. With `Cc1nnc(N2CCC(C(=O)NCc3cccc(Cl)c3)CC2)c2nn(-c3ccccc3)c(C)c12` the Potency was inconclusive [inhibitor, single point]. For `CCc1ccccc1N1CC(c2nc3ccccc3n2CCC2CCCCC2)CC1=O` (stereo unspecified), the Potency was inconclusive [inhibitor, single point]. With `Cc1ccc(CCNC(=O)CCCn2nc(C)c3c(C)n(-c4ccc(C)cc4)nc3c2=O)cc1` the Potency was inconclusive [inhibitor, single point]. For `Cc1cc(N2CCN(C)CC2)nc2ccc(NC(=O)Nc3ccccc3Cl)cc12`, the Potency was inconclusive [inhibitor, single point]. For `O=C(Nc1ccc(F)cc1)c1cccc(N2CCCS2(=O)=O)c1`, the activity change, negative = inhibition was inconclusive: -30.5% [inhibitor]. For `Cc1ccc(NC(=O)c2ccc3c(=O)n4nc(Nc5ccccc5C)sc4nc3c2)cc1C`, the Potency was “inactive”. In the case of `CCOC(=O)N1CCN([N+]([O-])=NOc2ccc([N+](=O)[O-])cc2C#N)CC1`, the Potency is reported as “inactive”. In the case of `Cc1ccc(NC(=O)N2CCc3c(sc4c3CCCC4)C2c2ccccc2)cc1F` (stereo unspecified), the Potency is reported as inconclusive [inhibitor, single point]. With `CCN1CCc2c(sc(NC(=O)CSc3ccccc3)c2-c2nc3ccccc3s2)C1` the Potency was inconclusive [inhibitor, single point]. For `Cc1ccc(OCCSc2nc3ccccc3n2CC(=O)N2CCCCC2)cc1C`, the Potency was “inactive”. With `CCn1c(=O)c(C(=O)Nc2cc(OC)c(OC)c(OC)c2)nc2ccccc21` the Potency was inconclusive [inhibitor, single point]. In the case of `Cc1cccc(Cn2nnc3c(=O)[nH]c(C4CCCN(C(=O)c5ccc(C(C)(C)C)cc5)C4)nc32)c1` (stereo unspecified), the Potency is reported as inconclusive [inhibitor, single point]. With `CN(C)S(=O)(=O)N(CC(=O)NCCSc1ccc(Cl)cc1)c1ccccc1` the Potency was “inactive”. With `COc1ccc(Br)cc1CC1C(=O)Nc2ccccc21` (stereo unspecified) the Potency was “inactive”. In the case of `Cc1ccc(-n2ncc(C(=O)N3CCN(c4cccc(C)c4C)CC3)c2C2CCNCC2)c(C)c1`, the Potency is reported as inconclusive [inhibitor, partial curve, poor fit]. With `O=C(Cn1c(=O)n(-c2ccccc2)c(=O)c2c3c(sc21)CCCC3)Nc1ccc(F)cc1` the Potency was inconclusive [inhibitor, single point]. With `CC1=C(C(=O)OC2CCCC2)C(c2cccc(Cl)c2Cl)CC(=O)N1` (stereo unspecified) the Potency was “inactive”. For `CCn1c2c(c(=O)n3ncc(C(=O)Nc4ccc(F)c(Cl)c4)c13)CN(Cc1ccc(OC)cc1)CC2`, the Potency was inconclusive [inhibitor, single point]. For `CCc1ccc(Nc2nc3ccccc3c3nnc(C)n23)cc1`, the Potency was inconclusive [inhibitor, single point]. For `CC(C)(C)OC(=O)N1CCC(c2c(C(=O)NCc3ccccn3)cnn2-c2ccccc2Cl)CC1`, the Potency was inconclusive [inhibitor, full curve, poor fit]. With `COc1ccccc1N1CCN(Cc2cc(COC(C)C)c3cccnc3c2O)CC1` the Potency was inconclusive [inhibitor, full curve, poor fit]. With `COc1ccc(S(=O)(=O)N(C(=O)c2ccncc2)c2ccc3oc(C)c(C(C)=O)c3c2)cc1` the Potency was inconclusive [inhibitor, full curve]. With `FC(F)(F)c1cccc(N2CCN(Cc3nnc(-c4ccccc4)o3)CC2)c1` the Potency was “inactive”.
